According to ChEMBL document CHEMBL5308541, “MAIP: An Open-Source Tool to Enrich High-Throughput Screening Output and Identify Novel, Druglike Molecules with Antimalarial Activity” (ACS Med Chem Lett, 2023):
The campaign covered roughly 150,000 compounds. About 540 (0.36%) showed an effect of 50% or more. The list shows a part of the results.

Test system: Plasmodium falciparum
Assay: Primary screen in NF54 nanoGlo assay, in single point, at 2uM, 72h; a lower Z score goes with more inhibition
Type: functional, Erythrocyte
Settings: timepoint 72 hour

| SMILES | % Inhibition | Z score |
| --- | --- | --- |
| C[C@@H](CS(C)(=O)=O)N(C)C(=O)c1cc(C(F)(F)F)n(C)n1 | 7% | -1.41 |
| COc1ccc(CCN2CCC(CN(C)Cc3cnc(N4CCOCC4)s3)CC2)cc1 | 1% | -0.16 |
| Cc1nc2ccc(C(=O)NCc3cc4n(n3)CCN(CC(C)C)C4)cc2o1 | -5% | 0.71 |
| C[C@H]1CCCCN1C1CN(c2ncc(F)c(N3CCOCC3)n2)C1 | -12% | 2.15 |
| CN1CCC(N2CC[C@H](N(C)C(=O)c3ccc4[nH]c(C(F)F)nc4c3)C2)CC1 | -10% | 1.56 |
| CNc1nc(C)cc(N[C@@H]2COc3ccccc3C2)n1 | 44% | -7.66 |
| Cc1cc(=O)[nH]c(-n2nc(C)cc2NC(=O)C(=O)N2CCC[C@H](C)C2)n1 | 4% | -0.54 |
| CCN1CCC2CCC(C1)N2C(=O)NCc1cccc2cccnc12 (stereo not drawn) | -1% | 0.18 |
| Cc1cc(N2CCC(NC(=O)Nc3cc(-c4ccccc4)on3)CC2)nc(C)n1 | 7% | -1.52 |
| Cc1cccc([C@@H](O)CNCc2ccc(N(C)C(C)C)nc2)c1 | -7% | 1.22 |
| Cn1ncc2ccc(CNc3nccc(N4CCOCC4)n3)cc21 | 9% | -1.38 |
| c1cncc(-c2nc(CCNC3CCN(Cc4ccco4)CC3)cs2)c1 | 10% | -1.8 |
| CN1CC[C@H](CNc2nccc3cc(C(F)(F)F)ccc23)CC1=O | -8% | 1.28 |
| COc1cc(C)nc(N2CCN(CC(=O)NC3CCN(C(C)C)CC3)CC2)n1 | 0% | 0.07 |
| c1coc(CN2CCC(N3CCC[C@H](c4nc5ccccc5o4)C3)CC2)c1 | -7% | 1.14 |
| CNc1ccc(Nc2ncc(Cl)cn2)cn1 | -13% | 2.77 |
| CC(C)(C)OC(=O)N1CCCC(C(=O)NC2CCCN(c3ncnc4sccc34)C2)C1 (stereo not drawn) | -1% | 0.22 |
| C[C@H]1CN(c2cccc(F)c2)CCN1c1ccc(C(=O)O)nn1 | 10% | -2.22 |
| Cc1nc(-c2cccc(NC(=O)C(=O)N3Cc4ccccc4C3)c2)n[nH]1 | 2% | -0.37 |
| c1ccc(-c2csc3nc(C4CC4)nc(NCc4ccnc(N5CCOCC5)c4)c23)cc1 | 7% | -1.59 |
| c1cc(CN2CCOCC2)cc(-c2cnc3[nH]cnc3c2)c1 | 0% | -0.01 |
| CCOc1cccc(CN(CCO)C(=O)Cc2ccc(O)c(Cl)c2)c1 | -4% | 0.78 |
| Cc1ccc(-c2ccc(C(=O)Nc3cccnc3N3CCOCC3)c(F)c2)cc1C | -8% | 1.44 |
| O=C(NC1CCCCC1)C1CC(O)CN1C1CCN(C(=O)c2ccc3ncccc3c2)CC1 (stereo not drawn) | -11% | 2 |
| O[C@H]1CCN(C2CCN(c3ccc(-n4cnc5ccccc54)cc3)CC2)C1 | -4% | 0.72 |
| O=C([C@@H]1CCCN1c1ncnc2[nH]cnc12)N1CCC(c2noc3cc(F)ccc23)CC1 | -14% | 2.11 |
| Cc1cccnc1OCC1CCN(Cc2nncn2C)CC1 | -21% | 4.14 |

| SMILES | % Inhibition | Z score |
| --- | --- | --- |
| Oc1cccc(CN2CCC[C@H](NCc3cnc(N4CCOCC4)nc3)C2)c1 | -6% | 0.91 |
| COc1ccccc1-c1ccc(N[C@H]2CCCN(Cc3cccs3)C2)nn1 | -19% | 4.18 |
| COc1ccccc1C(=O)Nc1cccc(Nc2nc(-c3ccccc3)c3ccc(C)cc3n2)c1 | -6% | 0.93 |
| O=C(c1ccncc1)N1CC[C@H](NC2CCN(CC(F)(F)F)CC2)C1 | 5% | -0.96 |
| COc1ccc(OC2CCN(C3CCCC3)CC2)c(C(=O)NCc2cccc3[nH]ccc23)c1 | 44% | -7.54 |
| CC(C)n1ncc2cc(CNc3nnc(-c4ccncc4)o3)cnc21 | -1% | 0.29 |
| CC(=O)N1CC2CCCN3CCCC(C23)C1CCCC(=O)N1CCC(N2CCCCC2)CC1 (stereo not drawn) | 9% | -1.58 |
| O=C(NC1CNCC1O)c1cc(Cl)ccc1Br (stereo not drawn) | -6% | 0.9 |
| CC(C)c1cccc(C(=O)N2CC(O)C(Cc3cnccn3)C2)c1 (stereo not drawn) | -7% | 1.2 |
| CC(=O)N(c1ccccc1)c1nc([C@H]2Nc3ccccc3-c3nc4ccccc4n32)cs1 | -7% | 1.01 |
| Cc1cnc(NCCCn2ncc3ccccc32)nc1-c1cnn(C)c1 | -9% | 1.79 |
| Cc1ccc(-c2noc(CCCn3cncn3)n2)nn1 | -6% | 1.06 |
| CN(C[C@H](O)COc1cccc(CNCCCOc2cccnc2)c1)C1CCCCC1 | 31% | -6.24 |
| CC[C@H](Nc1nccc(-c2ccncc2)n1)c1cnn(C)c1 | 1% | -0.2 |
| O=C(NC1CCN(CC(F)(F)F)CC1)c1cccc(Oc2cnccn2)c1 | -5% | 0.86 |
| Fc1cc(CNC[C@H]2CCN(CC(F)(F)F)C2)c2ncccc2c1 | 2% | -0.44 |
| COC[C@H]1CCCN(S(=O)(=O)NCc2noc(-c3ccco3)n2)C1 | -10% | 1.76 |
| c1ccc(CCCN2CC3CCC(C2)N(C[C@H]2[C@@H]4CNC[C@@H]42)C3)cc1 (stereo partly drawn) | 1% | -0.26 |
| O=C(c1ccc(N2CCCNCC2)nc1)N1CCC(Cn2cccn2)CC1 | -4% | 0.63 |
| OCC1CCN(Cc2ccccc2)CC1Nc1ccc2nccnc2n1 (stereo not drawn) | 19% | -3.29 |
| O=C(Nc1ccc(Br)c(F)c1)N1CCC(c2ncc3n2CCCC3)CC1 | -18% | 3.94 |
| COc1ccc(C2CC2CC(=O)N(C)c2cccc3ncccc23)cc1 (stereo not drawn) | -3% | 0.41 |
| CN(C)CCOc1ccccc1-c1cccc(C(=O)N2CC[C@H](CN)C2)c1 | -10% | 1.7 |
| O=C([C@H]1CCCNCC1)N1CCC(N2CCC(O)CC2)CC1 | 1% | -0.22 |
| CC(C)Cc1cc(CNC(=O)c2cc(=O)c3ccccc3[nH]2)no1 | 0% | 0.01 |
| CCc1ccc(NC(=O)CCN2CC[C@H](NC(C)=O)C2)cc1 | -7% | 1.19 |
| COc1cccc(Oc2ccc(NC(=O)[C@H]3CCCN(C4CCOCC4)C3)cn2)c1 | -7% | 1.18 |
